{"source": "the supplement of paper PMC10126150", "note": "Sequences with one replicate were seen in a single cluster, so their values are uncertain.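 Further: ATP exposure 15 min at 22 °C before imaging.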"}
{"test_system": "ATP", "test": "switch fluorescence ratio, 500 uM ATP over buffer (Cy3 cluster intensity, sum of 5 cycles each) (fold (ratio)); higher = stronger signal-on switching upon ATP binding; sequences stand for … in TCGTCGGCAGCGTCAGATGTGTATAAGAGACAGTTTTTTTTTTTTTTTTTTTTTTTTT…TC", "details": "aptamer strand: ATP DNA aptamer (quencher-CACCTGGGGGAGTATTGCGGAGGAAGG + anchor), 100 nM annealed; ATP concentration: 500 uM; one replicate", "how_it_was_run": "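After annealing to 100 nM quencher-labelled ATP aptamer, Cy3-labelled switching-strand clusters on a modified Illumina MiSeq flow-cell were imaged in selection buffer. A second image followed after 15 min with 500 uM ATP at 22 °C, and five such buffer/ATP cycles were done, each separated by NaOH stripping and re-annealing. The fluorescence ratio, averaged per switch-domain sequence, is summed target-cycle over summed buffer-cycle Cy3 intensity per cluster, with clusters outside 100-1000 RFU excluded.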"}
{"sequence": "GTGCACCGTG", "switch fluorescence ratio": 0.984}
{"sequence": "GTGCACGTAT", "switch fluorescence ratio": 1.02}
{"sequence": "GTGCATGATG", "switch fluorescence ratio": 1.03}
{"sequence": "GTGCCAAAAT", "switch fluorescence ratio": 1.04}
{"sequence": "GTGCCCCAA", "switch fluorescence ratio": 1.02}
{"sequence": "GTGCCGGTTC", "switch fluorescence ratio": 1.01}
{"sequence": "GTGCGAAGAG", "switch fluorescence ratio": 0.981}
{"sequence": "GTGCGAGACG", "switch fluorescence ratio": 0.968}
{"sequence": "GTGCGCCGGC", "switch fluorescence ratio": 0.967}
{"sequence": "GTGCGCGACC", "switch fluorescence ratio": 1.11}
{"sequence": "GTGCGGAAGC", "switch fluorescence ratio": 0.973}
{"sequence": "GTGCGGCGTG", "switch fluorescence ratio": 1.06}
{"sequence": "GTGCGTGAAC", "switch fluorescence ratio": 1.02}
{"sequence": "GTGCTAGGTG", "switch fluorescence ratio": 1.71}
{"sequence": "GTGCTCTTTA", "switch fluorescence ratio": 1.03}
{"sequence": "GTGCTGCGGA", "switch fluorescence ratio": 1.03}
{"sequence": "GTGCTGGGAA", "switch fluorescence ratio": 0.992}
{"sequence": "GTGGAACTAC", "switch fluorescence ratio": 1.04}
{"sequence": "GTGGAAGGGA", "switch fluorescence ratio": 0.984}
{"sequence": "GTGGACGGGA", "switch fluorescence ratio": 1.01}
{"sequence": "GTGGACGTGC", "switch fluorescence ratio": 1.02}
{"sequence": "GTGGAGCGTC", "switch fluorescence ratio": 1.01}
{"sequence": "GTGGAGGTAG", "switch fluorescence ratio": 0.998}
{"sequence": "GTGGCAACGG", "switch fluorescence ratio": 0.967}
{"sequence": "GTGGCACATC", "switch fluorescence ratio": 1.01}
{"sequence": "GTGGCAGTGT", "switch fluorescence ratio": 0.956}
{"sequence": "GTGGCCTTCT", "switch fluorescence ratio": 0.977}
{"sequence": "GTGGCGAAG", "switch fluorescence ratio": 1}
{"sequence": "GTGGCGAGCG", "switch fluorescence ratio": 1.01}
{"sequence": "GTGGGAAGT", "switch fluorescence ratio": 1}
{"sequence": "GTGGGACGG", "switch fluorescence ratio": 0.993}
{"sequence": "GTGGGAGAG", "switch fluorescence ratio": 0.967}
{"sequence": "GTGGGCTGGG", "switch fluorescence ratio": 1.02}
{"sequence": "GTGGGGGTCA", "switch fluorescence ratio": 1.02}
{"sequence": "GTGGGGTGCA", "switch fluorescence ratio": 1.03}
{"sequence": "GTGGTAAGGT", "switch fluorescence ratio": 0.958}
{"sequence": "GTGGTATAGA", "switch fluorescence ratio": 1.03}
{"sequence": "GTGGTATGTT", "switch fluorescence ratio": 1}
{"sequence": "GTGGTATTAC", "switch fluorescence ratio": 1.03}
{"sequence": "GTGGTCCTT", "switch fluorescence ratio": 0.97}
{"sequence": "GTGGTGCCTC", "switch fluorescence ratio": 0.991}
{"sequence": "GTGGTGCGTC", "switch fluorescence ratio": 1.02}
{"sequence": "GTGGTGCTCC", "switch fluorescence ratio": 1.05}
{"sequence": "GTGGTTAACT", "switch fluorescence ratio": 1.05}
{"sequence": "GTGGTTAATT", "switch fluorescence ratio": 0.972}
{"sequence": "GTGTACGCGA", "switch fluorescence ratio": 1.26}
{"sequence": "GTGTACGTGC", "switch fluorescence ratio": 1.04}
{"sequence": "GTGTACTCTA", "switch fluorescence ratio": 1.09}
{"sequence": "GTGTAGCTTC", "switch fluorescence ratio": 1.02}
{"sequence": "GTGTAGGCTA", "switch fluorescence ratio": 0.967}
{"sequence": "GTGTATGG", "switch fluorescence ratio": 0.968}
{"sequence": "GTGTATGGCA", "switch fluorescence ratio": 1.02}
{"sequence": "GTGTATTTCG", "switch fluorescence ratio": 0.978}
{"sequence": "GTGTCAATGT", "switch fluorescence ratio": 1.01}
{"sequence": "GTGTCCCATT", "switch fluorescence ratio": 1.05}
{"sequence": "GTGTCGTTGA", "switch fluorescence ratio": 1.01}
{"sequence": "GTGTCTGTAC", "switch fluorescence ratio": 1}
{"sequence": "GTGTGACGTT", "switch fluorescence ratio": 0.941}
{"sequence": "GTGTGAGGGA", "switch fluorescence ratio": 0.971}
{"sequence": "GTGTGCAAAA", "switch fluorescence ratio": 1.05}
{"sequence": "GTGTGGAGGC", "switch fluorescence ratio": 1.08}
{"sequence": "GTGTGGTATT", "switch fluorescence ratio": 0.979}
{"sequence": "GTGTGTATCC", "switch fluorescence ratio": 1.01}
{"sequence": "GTGTGTGCCC", "switch fluorescence ratio": 0.966}
{"sequence": "GTGTGTGTTT", "switch fluorescence ratio": 1.01}
{"sequence": "GTGTTAGGAG", "switch fluorescence ratio": 1}
{"sequence": "GTGTTATTAT", "switch fluorescence ratio": 0.997}
{"sequence": "GTGTTCATGA", "switch fluorescence ratio": 0.955}
{"sequence": "GTGTTCCACG", "switch fluorescence ratio": 0.997}
{"sequence": "GTGTTGACGG", "switch fluorescence ratio": 0.969}
{"sequence": "GTGTTTGTAG", "switch fluorescence ratio": 1}
{"sequence": "GTGTTTTGCC", "switch fluorescence ratio": 1.02}
{"sequence": "GTTAAATAAA", "switch fluorescence ratio": 1}
{"sequence": "GTTAAGCCGC", "switch fluorescence ratio": 1.05}
{"sequence": "GTTAATACGT", "switch fluorescence ratio": 1}
{"sequence": "GTTAATATAC", "switch fluorescence ratio": 1.12}
{"sequence": "GTTAATATTA", "switch fluorescence ratio": 1.02}
{"sequence": "GTTAATCGGG", "switch fluorescence ratio": 1.01}
{"sequence": "GTTAATCGT", "switch fluorescence ratio": 0.945}
{"sequence": "GTTAATTCGC", "switch fluorescence ratio": 1.03}
{"sequence": "GTTACCCGTT", "switch fluorescence ratio": 0.98}
{"sequence": "GTTACCGATA", "switch fluorescence ratio": 1.04}
{"sequence": "GTTACCGTGC", "switch fluorescence ratio": 1.04}
{"sequence": "GTTACGCCCT", "switch fluorescence ratio": 1.06}
{"sequence": "GTTACTAGGG", "switch fluorescence ratio": 1.01}
{"sequence": "GTTAGACATT", "switch fluorescence ratio": 0.97}
{"sequence": "GTTAGAGACG", "switch fluorescence ratio": 1.07}
{"sequence": "GTTAGATCTA", "switch fluorescence ratio": 1.01}
{"sequence": "GTTAGCAGAA", "switch fluorescence ratio": 1.02}
{"sequence": "GTTAGCCAGG", "switch fluorescence ratio": 1.08}
{"sequence": "GTTAGCCGGG", "switch fluorescence ratio": 0.996}
{"sequence": "GTTAGCTCTC", "switch fluorescence ratio": 1.01}
{"sequence": "GTTAGTAGTA", "switch fluorescence ratio": 0.988}
{"sequence": "GTTAGTATGC", "switch fluorescence ratio": 1}
{"sequence": "GTTAGTCCTG", "switch fluorescence ratio": 1.01}
{"sequence": "GTTAGTGCGG", "switch fluorescence ratio": 0.968}
{"sequence": "GTTAGTGGGA", "switch fluorescence ratio": 1.09}
{"sequence": "GTTATAAACG", "switch fluorescence ratio": 0.968}
{"sequence": "GTTATAGGTA", "switch fluorescence ratio": 1.01}
{"sequence": "GTTATAGTAC", "switch fluorescence ratio": 1.15}
{"sequence": "GTTATCGTAT", "switch fluorescence ratio": 1.01}
{"sequence": "GTTATGCCGC", "switch fluorescence ratio": 1.11}
{"sequence": "GTTATGGTTC", "switch fluorescence ratio": 0.97}
{"sequence": "GTTATTGGCT", "switch fluorescence ratio": 0.964}
{"sequence": "GTTATTGGGC", "switch fluorescence ratio": 0.984}
{"sequence": "GTTATTGTA", "switch fluorescence ratio": 0.975}
{"sequence": "GTTATTGTAC", "switch fluorescence ratio": 1.03}
{"sequence": "GTTATTTCAG", "switch fluorescence ratio": 0.991}
{"sequence": "GTTCAATAAT", "switch fluorescence ratio": 1.02}
{"sequence": "GTTCATAGTT", "switch fluorescence ratio": 0.978}
{"sequence": "GTTCATCAGA", "switch fluorescence ratio": 1.01}
{"sequence": "GTTCCAGCAT", "switch fluorescence ratio": 1.19}
{"sequence": "GTTCCAGCTG", "switch fluorescence ratio": 0.965}
{"sequence": "GTTCCTAGCA", "switch fluorescence ratio": 1.32}
{"sequence": "GTTCCTTTGG", "switch fluorescence ratio": 0.984}
{"sequence": "GTTCGAAACG", "switch fluorescence ratio": 1.07}
{"sequence": "GTTCGCAGCG", "switch fluorescence ratio": 1}
{"sequence": "GTTCGGAAGC", "switch fluorescence ratio": 1.11}
{"sequence": "GTTCGGAGC", "switch fluorescence ratio": 1.19}
{"sequence": "GTTCGGTTTC", "switch fluorescence ratio": 0.968}
{"sequence": "GTTCGTAATG", "switch fluorescence ratio": 1.04}
{"sequence": "GTTCGTGGGA", "switch fluorescence ratio": 1.01}
{"sequence": "GTTCTACTTG", "switch fluorescence ratio": 1}
{"sequence": "GTTCTATTCA", "switch fluorescence ratio": 0.971}
{"sequence": "GTTCTCAAGT", "switch fluorescence ratio": 0.972}
{"sequence": "GTTCTCTCCG", "switch fluorescence ratio": 1.18}
{"sequence": "GTTCTGGCCT", "switch fluorescence ratio": 1.02}
{"sequence": "GTTCTGTTAG", "switch fluorescence ratio": 1.01}
{"sequence": "GTTCTTGCTT", "switch fluorescence ratio": 0.969}
{"sequence": "GTTCTTTTAG", "switch fluorescence ratio": 0.986}
{"sequence": "GTTGAAATGG", "switch fluorescence ratio": 0.979}
{"sequence": "GTTGAAGTAA", "switch fluorescence ratio": 1.01}
{"sequence": "GTTGAAGTCG", "switch fluorescence ratio": 1}
{"sequence": "GTTGAATAAA", "switch fluorescence ratio": 1.02}
{"sequence": "GTTGACAGGG", "switch fluorescence ratio": 1.05}
{"sequence": "GTTGACCCA", "switch fluorescence ratio": 0.99}
{"sequence": "GTTGACCGTG", "switch fluorescence ratio": 0.976}
{"sequence": "GTTGAGGTTA", "switch fluorescence ratio": 0.968}
{"sequence": "GTTGAGTCCC", "switch fluorescence ratio": 1}
{"sequence": "GTTGATCAGT", "switch fluorescence ratio": 1}
{"sequence": "GTTGATCGTC", "switch fluorescence ratio": 0.98}
{"sequence": "GTTGATCTTG", "switch fluorescence ratio": 0.981}
{"sequence": "GTTGATGGGT", "switch fluorescence ratio": 0.957}
{"sequence": "GTTGATGGTC", "switch fluorescence ratio": 0.924}
{"sequence": "GTTGCGACAA", "switch fluorescence ratio": 1.27}
{"sequence": "GTTGCGCATG", "switch fluorescence ratio": 1.03}
{"sequence": "GTTGCGTTAC", "switch fluorescence ratio": 1.49}
{"sequence": "GTTGCTCGTC", "switch fluorescence ratio": 1}
{"sequence": "GTTGCTCGTT", "switch fluorescence ratio": 0.958}
{"sequence": "GTTGCTGGAC", "switch fluorescence ratio": 1.05}
{"sequence": "GTTGGACATA", "switch fluorescence ratio": 1.02}
{"sequence": "GTTGGCAATT", "switch fluorescence ratio": 0.931}
{"sequence": "GTTGGCGACA", "switch fluorescence ratio": 0.993}
